Laboratory results taken from the supplement of paper PMC3334620.
The full ranking holds about 33,000 sequences; the median of “E-score (-0.5 to 0.5)” is about -0.043, and the highest 2% start at about 0.37. This is one part of the list.

target: T1, Upc2 (UniProt Q12151); assay: PBM E-score (8-mer binding enrichment) (E-score (-0.5 to 0.5)); higher = stronger / more preferred TF binding; most listed sequences are background and not binding sites; details: protein concentration: 200 nM; construct: GST-full length
T1 sequence: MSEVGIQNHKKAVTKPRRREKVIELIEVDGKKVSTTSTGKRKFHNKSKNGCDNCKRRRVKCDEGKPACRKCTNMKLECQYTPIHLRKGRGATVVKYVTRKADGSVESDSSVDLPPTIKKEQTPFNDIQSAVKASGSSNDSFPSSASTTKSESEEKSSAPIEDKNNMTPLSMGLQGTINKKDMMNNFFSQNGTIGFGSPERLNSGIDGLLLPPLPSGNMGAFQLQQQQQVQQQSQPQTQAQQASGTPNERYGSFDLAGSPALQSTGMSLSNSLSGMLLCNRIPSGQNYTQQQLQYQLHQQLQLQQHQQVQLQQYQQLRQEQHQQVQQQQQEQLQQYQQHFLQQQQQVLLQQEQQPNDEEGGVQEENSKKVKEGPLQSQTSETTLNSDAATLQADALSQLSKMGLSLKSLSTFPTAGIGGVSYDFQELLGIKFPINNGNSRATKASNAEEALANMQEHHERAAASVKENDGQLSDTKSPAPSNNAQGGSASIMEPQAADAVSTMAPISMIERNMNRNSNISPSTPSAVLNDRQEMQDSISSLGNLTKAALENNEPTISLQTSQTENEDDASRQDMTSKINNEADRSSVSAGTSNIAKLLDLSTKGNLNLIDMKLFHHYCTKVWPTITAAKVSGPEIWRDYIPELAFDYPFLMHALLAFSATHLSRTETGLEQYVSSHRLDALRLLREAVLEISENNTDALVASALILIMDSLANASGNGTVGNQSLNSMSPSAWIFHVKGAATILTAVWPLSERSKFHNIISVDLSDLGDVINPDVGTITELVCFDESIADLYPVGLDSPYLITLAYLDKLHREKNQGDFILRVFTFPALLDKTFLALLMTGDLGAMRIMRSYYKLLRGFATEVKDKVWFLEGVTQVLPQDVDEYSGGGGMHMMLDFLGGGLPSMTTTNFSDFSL
Experimental: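 Universal 'all 10-mer' protein binding microarrays (Agilent AMADID 015681) probed with GST-tagged S. cerevisiae TFs (full-length or DBD) made by in vitro transcription/translation (PURExpress), about 100-200 nM. Bound TF was detected with fluorescent anti-GST. Each ungapped 8-mer (which stands for itself and its reverse complement) is scored by the PBM enrichment score (E-score), a modified Wilcoxon-Mann-Whitney statistic from -0.5 to +0.5, computed with the Universal PBM Analysis Suite. Scale: above 0.35 generally sequence-specific binding.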

Sequence | PBM E-score
GCGGAAGA | 0.014
CTTGGTCA | -0.176
GCACGCTA | -0.0431
GAACAAGC | 0.0426
ATCATTAG | 0.0098
GAAAAGCC | -0.169
ATCATACA | 0.0941
ACCTGGTA | -0.0639
ATTAGGTG | -0.0896
ACAGCTAA | -0.157
AGGTCAGG | -0.323
ATCTGGAC | -0.288
GGATTTCA | -0.191
ATTTTAGC | 0.0174
TATGGGCA | -0.159
CGCGTGTC | 0.0605
GCGGCCCC | -0.254
TGTTTAAA | 0.0234
AGGTCTCG | 0.0733
GTTTCGAA | 0.0998
AGCCCCCA | -0.311
TCCTTGCA | -0.105

Sequence | PBM E-score
GTACGAAC | 0.467
GCAGAACA | -0.193
GACCAGAA | -0.053
ACCAACCG | -0.0269
GCGAGGCC | 0.2
GCCGGGCC | -0.11
ACGAATAA | 0.312
GGGCCTTA | -0.215
CTACTGGA | -0.249
TCCGTGAA | 0.0778
ACGATCGC | 0.352
AGCGAACA | 0.19
AGGGACAA | -0.0862
GTAAAGGA | 0.187
CACTTGAG | -0.0904
ACCCCCTA | -0.152
AGATATCC | -0.0197
AAATGATT | 0.0371
ATGTCAGA | -0.25
GCGAATCA | 0.0895
GCTTAGAC | -0.0952
ATGAGTGG | -0.126

Sequence | PBM E-score
CCAAGGCC | -0.13
ACGCGCAT | 0.103
CAATAAAG | -0.0138
CCCCTGGA | -0.204
TAAGAGCA | 0.147
ATAACGTA | 0.258
ATGCTGTG | 0.0988
CACGAACA | 0.0853
ATGTTTGA | -0.0614
TCCTGGCA | -0.0779
CGCCGGGA | -0.107
GCGCTCCC | -0.151
CATGTATA | 0.137
ATACTCGG | 0.0799
AAGAATAC | -0.00552
AGTGTTTC | 0.109
TGCTCACA | -0.0272
AGTTGAAC | 0.142
CCGAGGAG | 0.142
CGGAGTAG | -0.123
AGATAGCT | -0.104
GACAATTA | 0.1

Sequence | PBM E-score
ACGAGGCG | 0.4
AGGGAGCC | -0.284
ACAATCAC | 0.0153
CTGGCTAA | -0.194
CAATGGTA | -0.0318
ACTGTGTC | -0.114
ACGAACAA | 0.363
AATTAGGG | -0.251
AGTGTAAC | -0.0845
GAAGAATA | -0.0363
CACGCACA | 0.127
GCCACACA | -0.312
CGGGGACG | -0.191
TGGATGAA | 0.00712
CGCCCCCG | -0.129
ACTTACGC | -0.0998
GACTCTGA | -0.295
GTCGGGGA | -0.188
AAGGCCCC | -0.105
GCAGGCGC | -0.0999
